Sequences and labels used below:
B1: GPR68, Q15743 (parent)
chain: MGNITADNSSMSCTIDHTIHQTLAPVVYVTVLVVGFPANCLSLYFGYLQIKARNELGVYLCNLTVADLFYICSLPFWLQYVLQHDNWSHGDLSCQVCGILLYENIYISVGFLCCISVDRYLAVAHPFRFHQFRTLKAAVGVSVVIWAKELLTSIYFLMHEEVIEDENQHRVCFEHYPIQAWQRAINYYRFLVGFLFPICLLLASYQGILRAVRRSHGTQKSRKDQIQRLVLSTVVIFLACFLPYHVLLLVRSVWEASCDFAKGVFNAYHFSLLLTSFNCVADPVLYCFVSETTHRDLARLRGACLAFLTCSRTGRAREAYPLGAPEASGKSGAQGEEPELLTKLHPAFQTPNSPGSGGFPTGRLA

Scores whose standard error is large were omitted. Two further conditions of the source, in which the scores hardly spread, are not listed. Names with del lack the residues named; names with ins carry added residues between the positions named. For part of these data: How much ogerin was present is not stated here.

In series [1] the parent is B1. Briefly: cAMP reporter score (Enrich2 score, wild type = 0); higher = more signal; HEK293T, FACS bins.
Variants of B1 are the subject of series [2]. The series can be described thus: surface expression score (Enrich2 score, wild type = 0); higher = more signal; HEK293T, FACS bins.

I50del: the cAMP reporter score in series [1] (pH 6) was -1.17; in series [1] (pH 6, modulator: ogerin) it was -0.914; in series [1] (pH 6.5, modulator: ogerin), -0.73.

Take V109_G110insGSG: the cAMP reporter score in series [1] (pH 6) is -1.12; in series [1] (pH 6.5, modulator: ogerin) it was -1.63. Further, the surface expression score in series [2] was -3.96.

As to N54L, the cAMP reporter score in series [1] (pH 6) is -2.53. For the same variant, the surface expression score in series [2] is -1.55.

Turning to N54H, the cAMP reporter score in series [1] (pH 6) is 0.062; in series [1] (pH 6, modulator: ogerin), -0.708; in series [1] (pH 6.5, modulator: ogerin), 0.269.

With G140K, the cAMP reporter score is -0.559 in series [1] (pH 6); -1.17 in series [1] (pH 6, modulator: ogerin); -0.229 in series [1] (pH 6.5, modulator: ogerin).

As to L202_A203del, the cAMP reporter score in series [1] (pH 6) is -1.1; in series [1] (pH 6, modulator: ogerin), -0.728; in series [1] (pH 6.5, modulator: ogerin), -2.53. For the same variant, the surface expression score in series [2] was -2.26.

As for Y59D, the cAMP reporter score in series [1] (pH 6) was -1.32; in series [1] (pH 6.5, modulator: ogerin), -1.41. In series [2], the surface expression score was -2.31.

As to I208V, the cAMP reporter score is -0.396 in series [1] (pH 6); 0.712 in series [1] (pH 6, modulator: ogerin); -0.851 in series [1] (pH 6.5, modulator: ogerin). Besides, in series [2], the surface expression score turned out to be 1.69.

Regarding I208N, the cAMP reporter score in series [1] (pH 6) was -0.577; in series [1] (pH 6.5, modulator: ogerin) it was -1.98. Further, the surface expression score in series [2] was -2.9.

V162_I163insGSG: the cAMP reporter score in series [1] (pH 6) was -0.711; in series [1] (pH 6.5, modulator: ogerin), 0.568.

For S108_V109insGSG, the cAMP reporter score was -0.153 in series [1] (pH 6); -1.72 in series [1] (pH 6, modulator: ogerin); -3 in series [1] (pH 6.5, modulator: ogerin). Moreover, the surface expression score in series [2] is -1.32.

Take F76_W77del: the cAMP reporter score in series [1] (pH 6) was -1.59. For the same variant, in series [2], the surface expression score was -1.09.

L23V: the cAMP reporter score in series [1] (pH 6) is -0.093; in series [1] (pH 6, modulator: ogerin) it was 0.828; in series [1] (pH 6.5, modulator: ogerin), 0.489. For the same variant, the surface expression score in series [2] was found to be 0.55.

With I99C, the cAMP reporter score is -1.76 in series [1] (pH 6); -0.823 in series [1] (pH 6, modulator: ogerin); -0.438 in series [1] (pH 6.5, modulator: ogerin). Moreover, the surface expression score in series [2] is -1.47.

On to T64H, for which the cAMP reporter score stood at 6.19 in series [1] (pH 6) and 1.59 in series [1] (pH 6, modulator: ogerin).

As for T64F, the cAMP reporter score is -0.938 in series [1] (pH 6) and -0.655 in series [1] (pH 6, modulator: ogerin).

As to A365I, the cAMP reporter score was -0.075 in series [1] (pH 5.5); -0.091 in series [1] (pH 6, modulator: ogerin); 0.754 in series [1] (pH 6.5, modulator: ogerin). The surface expression score in series [2] is -0.11.

Turning to A365Q, the cAMP reporter score in series [1] (pH 5.5) worked out at 0.491; in series [1] (pH 6, modulator: ogerin), 0.743; in series [1] (pH 6.5, modulator: ogerin) it was 0.718. Besides, the surface expression score in series [2] was -0.916.

With A365G, the cAMP reporter score in series [1] (pH 5.5) was 0.219; in series [1] (pH 6), -0.094; in series [1] (pH 6, modulator: ogerin), 0.817; in series [1] (pH 6.5, modulator: ogerin), 1.09. Besides, the surface expression score in series [2] amounted to 0.922.

With A365N, the cAMP reporter score in series [1] (pH 5.5) is -0.294; in series [1] (pH 6), -0.682; in series [1] (pH 6, modulator: ogerin) it was -0.107; in series [1] (pH 6.5, modulator: ogerin) it was -0.411. The surface expression score in series [2] was 0.487.

On to A365W, for which the cAMP reporter score in series [1] (pH 5.5) was -0.075; in series [1] (pH 6), -0.483; in series [1] (pH 6, modulator: ogerin), 0.054; in series [1] (pH 6.5, modulator: ogerin) it was -0.37. Also, the surface expression score in series [2] was -0.257.

With A365H, the cAMP reporter score in series [1] (pH 5.5) is 0.019; in series [1] (pH 6, modulator: ogerin), -0.298; in series [1] (pH 6.5, modulator: ogerin), 0.29. In addition, the surface expression score in series [2] was -0.727.

With A365R, the cAMP reporter score in series [1] (pH 5.5) was -0.545; in series [1] (pH 6), -1.36; in series [1] (pH 6, modulator: ogerin), -0.516; in series [1] (pH 6.5, modulator: ogerin), -0.452. For the same variant, in series [2], the surface expression score is -0.55.

As to A365Y, the cAMP reporter score in series [1] (pH 5.5) was 0.522; in series [1] (pH 6), -0.072; in series [1] (pH 6, modulator: ogerin), 1.01; in series [1] (pH 6.5, modulator: ogerin), 0.48. Besides, the surface expression score in series [2] was determined as 0.52.

A365V: the cAMP reporter score in series [1] (pH 5.5) stood at 1.72; in series [1] (pH 6), 2.3; in series [1] (pH 6, modulator: ogerin), 1.73; in series [1] (pH 6.5, modulator: ogerin), 1.46. Further, the surface expression score in series [2] is -0.306.

Take A365T: the cAMP reporter score worked out at 1.22 in series [1] (pH 5.5); 0.395 in series [1] (pH 6); 0.688 in series [1] (pH 6, modulator: ogerin); 0.783 in series [1] (pH 6.5, modulator: ogerin).

As to A365S, the cAMP reporter score in series [1] (pH 5.5) is 0.441; in series [1] (pH 6), 1.65; in series [1] (pH 6, modulator: ogerin) it was -0.35; in series [1] (pH 6.5, modulator: ogerin) it was 1.72. For the same variant, the surface expression score in series [2] was -0.671.

Turning to A365P, the cAMP reporter score in series [1] (pH 5.5) is -0.347; in series [1] (pH 6), 0.923; in series [1] (pH 6, modulator: ogerin) it was 0.31; in series [1] (pH 6.5, modulator: ogerin), -0.149. The surface expression score in series [2] is 0.028.

For the variant A365K, the cAMP reporter score in series [1] (pH 5.5) is -0.119; in series [1] (pH 6), 0.02; in series [1] (pH 6, modulator: ogerin) it was -0.05; in series [1] (pH 6.5, modulator: ogerin), -0.006. Moreover, the surface expression score in series [2] was -0.019.

As for A365L, the cAMP reporter score is -0.129 in series [1] (pH 5.5); -0.15 in series [1] (pH 6); -0.181 in series [1] (pH 6, modulator: ogerin); -0.243 in series [1] (pH 6.5, modulator: ogerin). Moreover, in series [2], the surface expression score was determined as 0.208.

With A365M, the cAMP reporter score in series [1] (pH 5.5) was -0.446; in series [1] (pH 6) it was -1.53; in series [1] (pH 6, modulator: ogerin), -0.215; in series [1] (pH 6.5, modulator: ogerin), -0.796. The surface expression score in series [2] was -0.409.

For the variant A365F, the cAMP reporter score in series [1] (pH 5.5) was 0.64; in series [1] (pH 6), 0.105; in series [1] (pH 6, modulator: ogerin), 0.437; in series [1] (pH 6.5, modulator: ogerin), 0.65. Also, in series [2], the surface expression score was -0.096.

Consider A281_D282insG, for which the cAMP reporter score is -0.253 in series [1] (pH 6); -0.723 in series [1] (pH 6, modulator: ogerin); -1.13 in series [1] (pH 6.5, modulator: ogerin). In addition, in series [2], the surface expression score is -2.11.

Consider L135Q, for which the cAMP reporter score is -0.057 in series [1] (pH 6) and -0.669 in series [1] (pH 6, modulator: ogerin). Further, the surface expression score in series [2] is -0.288.

For L135D, the cAMP reporter score in series [1] (pH 6) came out at 2.57.

Take V284R: the cAMP reporter score in series [1] (pH 6) was -0.609; in series [1] (pH 6.5, modulator: ogerin) it was -1.51.

As to E149N, the cAMP reporter score is 2.3 in series [1] (pH 6); -2.64 in series [1] (pH 6, modulator: ogerin); -1.03 in series [1] (pH 6.5, modulator: ogerin). Also, the surface expression score in series [2] is -0.421.
